According to PMC9860685:
These are yes or no findings as the source states them, for the method shown. Some entries that bind do so weakly or less than the wild type.

By UniProt entry, the sequences of proteins in these tests, tags left out. Where a name states a change or a piece, a line headed by the entry shows the natural chain unless it says otherwise.
UniProt P04792: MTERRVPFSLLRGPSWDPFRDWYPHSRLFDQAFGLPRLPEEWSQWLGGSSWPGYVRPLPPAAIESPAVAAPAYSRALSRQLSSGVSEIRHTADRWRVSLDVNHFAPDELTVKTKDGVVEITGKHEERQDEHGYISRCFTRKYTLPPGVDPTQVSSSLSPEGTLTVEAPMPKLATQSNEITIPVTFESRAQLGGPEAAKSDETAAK
UniProt Q9UBY9: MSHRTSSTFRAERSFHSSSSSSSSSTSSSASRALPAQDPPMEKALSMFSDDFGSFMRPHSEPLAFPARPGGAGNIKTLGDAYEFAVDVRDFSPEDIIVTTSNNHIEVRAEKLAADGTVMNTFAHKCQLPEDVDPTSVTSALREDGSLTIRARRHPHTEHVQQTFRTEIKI

B1: α-crystallin domain of HspB5 (B5ACD) (domain or fragment, UniProt P02511 64-150)
chain: GLSEMRLEKDRFSVNLDVKHFSPEELKVKVLGDVIEVHGKHEERQDEHGFISREFHRKYRIPADVDPLTITSSLSSDGVLTVNGPRK
B2: α-crystallin domain of HspB6 (B6ACD) (domain or fragment, UniProt O14558 64-149)
chain: VAQVPTDPGHFSVLLDVKHFSPEEIAVKVVGEHVEVHARHEERPDEHGFVAREFHRRYRLPPGVDPAAVTSALSPEGVLSIQAAPA
B3: α-crystallin domain of HspB8 (B8ACD) (domain or fragment, UniProt Q9UJY1 85-171)
chain: GRTPPPFPGEPWKVCVNVHSFKPEELMVKTKDGYVEVSGKHEEKQQEGGIVSKNFTKKIQLPAEVDPVTVFASLSPEGLLIIEAPQV

What was measured:
[1] = molecular target: T1, full-length HspB5 (αB-crystallin) (human) (UniProt P02511); assay: SEC; full-length sHsp (~19–20 μM per monomer) mixed with ACD (38–110 μM per monomer) in buffer B, 30 min at 42 °C; Superdex 200 Increase column in 50 mM phosphate pH 7.4, 150 mM NaCl, 2 mM DTT; fractions analysed by SDS–PAGE; both purified
T1 sequence: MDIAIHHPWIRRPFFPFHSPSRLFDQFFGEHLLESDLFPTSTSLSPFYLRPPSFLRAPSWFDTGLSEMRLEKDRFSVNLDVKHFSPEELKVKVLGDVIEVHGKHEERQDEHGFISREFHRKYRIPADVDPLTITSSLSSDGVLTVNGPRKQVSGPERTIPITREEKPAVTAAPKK

[2] = molecular target: full-length HspB1 (human) (UniProt P04792); assay: as above
[3] = molecular target: full-length HspB7 (human) (UniProt Q9UBY9); assay: native gel or EMSA; clear native PAGE, 12.5% gel, 80 mM glycine–Tris pH 8.6; sHsp 5–6 μM per monomer mixed with ACD 20–24 μM per monomer, 30 min at 25 °C in buffer B; Western blot with anti-HspB6 for the complexes of HspB6; both purified
[4] = molecular target: T2, full-length HspB8 (human) (UniProt Q9UJY1); assay: as above
T2 sequence: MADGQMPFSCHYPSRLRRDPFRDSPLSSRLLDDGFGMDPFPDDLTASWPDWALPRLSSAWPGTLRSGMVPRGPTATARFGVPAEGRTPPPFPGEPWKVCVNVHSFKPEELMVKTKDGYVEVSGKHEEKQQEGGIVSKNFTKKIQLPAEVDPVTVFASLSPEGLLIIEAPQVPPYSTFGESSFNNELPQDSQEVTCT

[5] = molecular target: α-crystallin domain of HspB8 (B8ACD) (human) (UniProt Q9UJY1); assay: SEC; Superdex 75 10/300 GL, 50 mM phosphate pH 7.4, 150 mM NaCl, 2 mM DTT; 25 μL samples of 16–150 μg (25–600 μM per monomer); apparent dissociation constant, dimer to monomers, from a hyperbolic fit of elution volume against the concentration loaded; both purified
[6] = molecular target: T1, full-length HspB5 (αB-crystallin) (human); assay: condition: full-length ~19–20 μM, ACD 38–110 μM per monomer; SEC; full-length sHsp (~19–20 μM per monomer) mixed with ACD (38–110 μM per monomer) in buffer B, 30 min at 42 °C; Superdex 200 Increase column in 50 mM phosphate pH 7.4, 150 mM NaCl, 2 mM DTT; fractions analysed by SDS–PAGE; both …
[7] = molecular target: 3D mutant of HspB1 (S15D, S78D, S82D) (human) (UniProt P04792); assay: as above
[8] = molecular target: full-length HspB1 (human) (UniProt P04792); assay: as above
[9] = molecular target: T3, full-length HspB6 (human) (UniProt O14558); assay: native gel or EMSA; clear native PAGE, 12.5% gel, 80 mM glycine–Tris pH 8.6; sHsp 5–6 μM per monomer mixed with ACD 20–24 μM per monomer, 30 min at 25 °C in buffer B; Western blot with anti-HspB6 for the complexes of HspB6; both purified
T3 sequence: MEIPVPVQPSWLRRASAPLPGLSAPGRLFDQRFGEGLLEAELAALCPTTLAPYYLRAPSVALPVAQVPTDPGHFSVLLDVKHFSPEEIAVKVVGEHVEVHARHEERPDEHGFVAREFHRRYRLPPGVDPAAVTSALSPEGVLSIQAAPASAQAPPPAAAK

[10] = molecular target: α-crystallin domain of HspB8 (B8ACD) (human) (UniProt Q9UJY1); assay: SEC-MALS; Superdex 200 Increase 10/300, 20 mM Tris–HCl pH 7.5, 150 mM NaCl, 3 mM β-mercaptoethanol; 2 mg/mL, 90 µL loaded; both purified

Binder | binding [1] | binding [2] | binding [3] | binding [4] | binding [5] | binding [6] | binding [7] | binding [8] | binding [9] | binding [10]
B1 | binds weakly | binds weakly |  |  |  |  |  |  |  | 
B2 | binds weakly | binds weakly | no binding (tested: sHsp 5–6 μM, ACD 20–24 μM per monomer) | no binding (tested: sHsp 5–6 μM, ACD 20–24 μM per monomer) |  |  |  |  |  | 
B3 |  |  | no binding (tested: sHsp 5–6 μM, ACD 20–24 μM per monomer) |  | no binding (tested: 25–600 μM per monomer) | no binding | no binding | no binding | no binding (tested: sHsp 5–6 μM, ACD 20–24 μM per monomer) | no binding (tested: 2 mg/mL)
